Experimental data from BigSolDB 2.1.

Nc1ccc(S(N)(=O)=O)cc1
solubility (mole fraction)
Settings	in 1,4-dioxane	in DMF	in DMSO	in acetonitrile	in ethanol	in water
293.15 K	0.0789	0.0187	0.0127	0.00367	0.00729	0.000692
303.15 K	0.101	0.0253	0.0172	0.00512	0.0114	0.00114
308.15 K	0.105	0.0322	0.0207	0.00757	0.0148	0.00147
313.15 K	0.115	0.0427	0.0246	0.0113	0.019	0.00187
323.15 K	0.143	0.0617	0.033	0.0169	0.0268	0.00241
